Sequences with one replicate were seen in a single cluster, so their values are uncertain.
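Further: ATP exposure 15 min at 22 °C before imaging.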

For the data set, the system named is ATP. The experiment in a line: switch fluorescence ratio, 500 uM ATP over buffer (Cy3 cluster intensity, sum of 5 cycles each) (fold (ratio)); higher = stronger signal-on switching upon ATP binding; sequences stand for … in TCGTCGGCAGCGTCAGATGTGTATAAGAGACAGTTTTTTTTTTTTTTTTTTTTTTTTT…TC. The settings on record: aptamer strand: ATP DNA aptamer (quencher-CACCTGGGGGAGTATTGCGGAGGAAGG + anchor), 100 nM annealed; ATP concentration: 500 uM; one replicate. Summed up: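 Cy3-labelled switching-strand clusters on a modified Illumina MiSeq flow-cell were annealed to 100 nM quencher-labelled ATP aptamer and imaged first in selection buffer, then after 15 min with 500 uM ATP at 22 °C. NaOH stripping and re-annealing separated each of five buffer/ATP cycles, and clusters outside 100-1000 RFU were excluded. The fluorescence ratio sums target-cycle Cy3 intensity over buffer-cycle Cy3 intensity per cluster and averages it per switch-domain sequence.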
In the case of GCTATTCTCG, the switch fluorescence ratio worked out at 1.2.
The same measure for AGGCAGCAAC: 1.23.
The same measure for GGTGCATCGG: 1.04; for ATTGTGGGTA: 0.981; for GTCCAAGGGA: 1.06.
For the sequence GTGCAAGAA, the switch fluorescence ratio is 1.41.
Regarding CAATTGGAA, the switch fluorescence ratio was 0.982.
Consider CTTTTCAAGA, for which the switch fluorescence ratio is 1.04.
The same measure for TGCTAATTGG: 1.01; for TCTCCTCCCG: 1.77.
As for TTATTGCTCC, the switch fluorescence ratio is 1.19.
In the case of GGATCAAGGA, the switch fluorescence ratio came out at 1.02.
Consider CGGGCGCTGC, for which the switch fluorescence ratio turned out to be 1.07.
Regarding GCCCATCGG, the switch fluorescence ratio worked out at 1.03.
Regarding AATAGAAGGG, the switch fluorescence ratio is 1.02.
For CTTTGTTCAT, the switch fluorescence ratio amounted to 0.981.
As to ACACATAATT, the switch fluorescence ratio worked out at 1.11.
In the case of TTTTGTCTCG, the switch fluorescence ratio turned out to be 1.04.
Take CACATTGGCT: the switch fluorescence ratio was found to be 0.962.
Take AACGTGCGAA: the switch fluorescence ratio was determined as 1.01.
Turning to TTCATCGGT, the switch fluorescence ratio came out at 1.05.
The same measure for AACATGTGAG: 1.01; for GAGAACGGCG: 1.01; for GGTCCAGCAG: 1.02.
With TTTTATCCAA, the switch fluorescence ratio is 1.02.
For the sequence TCACAAGTGC, the switch fluorescence ratio came out at 1.04.
With GGTCCGGACA, the switch fluorescence ratio is 0.978.
Consider GCCGAAGGTA, for which the switch fluorescence ratio is 1.03.
The same measure for TATCCTAATG: 1.01.
As for CTTTATTCCC, the switch fluorescence ratio turned out to be 1.01.
The same measure for TTCCTGGTAA: 1.05; for GCTGTTTTT: 0.991; for ATGACCATAT: 1.01.
As to GTTTTCTTAA, the switch fluorescence ratio is 0.959.
The same measure for GCGCGCTATA: 1; for TGGCGGCACG: 0.998.
Consider AACCAGTAGG, for which the switch fluorescence ratio was 1.03.
As for TGCATACGGG, the switch fluorescence ratio turned out to be 1.08.
In the case of CTCCAATGCG, the switch fluorescence ratio was determined as 1.55.
Take GCAGCTACGA: the switch fluorescence ratio came out at 1.81.
For the sequence GGTTAAGGC, the switch fluorescence ratio worked out at 0.975.
Consider TACCGATCTA, for which the switch fluorescence ratio turned out to be 1.05.
For TCACTACCCC, the switch fluorescence ratio came out at 1.07.
The same measure for CAGGCGGGGC: 0.998; for CTCAGGCTGA: 1.05.
For the sequence ATTCGACTG, the switch fluorescence ratio came to 0.983.
Regarding ATTTCTGAC, the switch fluorescence ratio stood at 1.02.
Regarding GCAATATCTT, the switch fluorescence ratio was 1.85.
On to AAGAACGGCA, for which the switch fluorescence ratio is 1.05.
Consider TCGGAGTAC, for which the switch fluorescence ratio was found to be 1.36.
For TATAGTGCA, the switch fluorescence ratio is 1.03.
As for GTTTAAAGAG, the switch fluorescence ratio came out at 0.982.
The same measure for CGTTATCAGG: 1.04.
Regarding ACGTGAGTTA, the switch fluorescence ratio was found to be 0.931.
Consider CGAATAGACG, for which the switch fluorescence ratio was found to be 1.
As for CAGTCCAGCG, the switch fluorescence ratio is 1.
Turning to CCGGCTAGC, the switch fluorescence ratio turned out to be 1.02.
Take TTACAGCGCT: the switch fluorescence ratio is 1.04.
The same measure for CTTTGCTGTA: 1.02.
On to CACGGAGAAT, for which the switch fluorescence ratio was determined as 1.02.
Turning to GTACAAACGG, the switch fluorescence ratio came out at 1.19.
As to CGGGTTCATG, the switch fluorescence ratio was found to be 1.01.
For the sequence CCACTCTGGT, the switch fluorescence ratio is 1.05.
For the sequence AATTAGCTTA, the switch fluorescence ratio came out at 0.971.
The same measure for TTATTAGAAT: 0.941; for AGTTCAAATG: 0.976.
As for CGGTAGCACT, the switch fluorescence ratio worked out at 1.23.
On to CGCTTAACTT, for which the switch fluorescence ratio was 1.01.
The same measure for GCCCGCCAAT: 2.27; for TGGTCTGGGG: 1.02.
For the sequence TTAAGAGTTT, the switch fluorescence ratio stood at 1.
Consider AGGCGCGGTC, for which the switch fluorescence ratio was 0.977.
On to TACGTTCAGC, for which the switch fluorescence ratio worked out at 1.06.
Take GCACTTCAC: the switch fluorescence ratio was 1.28.
Consider CGATCACGTA, for which the switch fluorescence ratio is 1.08.
The same measure for ATTTTGGATC: 0.981; for GTTAATATGC: 0.946.
The same measure for TAAAGGTTAA: 0.977.

Values taken from the supplement of paper PMC10126150.
